Results reported in PubChem BioAssay AID488969 (Vanderbilt High Throughput Screening Facility, 2010).
In all, about 110,000 compounds were measured (“z-score”: median about -0.1, highest 2% from about 2 on). This is one part of the list. Calls of active or inactive are those of the source.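 Rule for the calls: active = z-score in the third read window above 3 or below -3; inactive = the rest.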

What follows are compounds tested against Metabotropic glutamate receptor 8 (Rattus norvegicus) (UniProt P70579) (assay: mGluR8 Gi/Go-coupled signaling modulation – cell-based, rat, thallium flux, HTS, primary screen (AID 488969)). Conditions: HEK293 rat mGluR8, GIRK (G protein-gated inwardly rectifying potassium channel) thallium flux, FluoZin2; at 10 µM; stronger effect = higher value; submaximal glutamate (EC20) added with thallium.
Chain of UniProt P70579 (P70579 whole entry, looked up): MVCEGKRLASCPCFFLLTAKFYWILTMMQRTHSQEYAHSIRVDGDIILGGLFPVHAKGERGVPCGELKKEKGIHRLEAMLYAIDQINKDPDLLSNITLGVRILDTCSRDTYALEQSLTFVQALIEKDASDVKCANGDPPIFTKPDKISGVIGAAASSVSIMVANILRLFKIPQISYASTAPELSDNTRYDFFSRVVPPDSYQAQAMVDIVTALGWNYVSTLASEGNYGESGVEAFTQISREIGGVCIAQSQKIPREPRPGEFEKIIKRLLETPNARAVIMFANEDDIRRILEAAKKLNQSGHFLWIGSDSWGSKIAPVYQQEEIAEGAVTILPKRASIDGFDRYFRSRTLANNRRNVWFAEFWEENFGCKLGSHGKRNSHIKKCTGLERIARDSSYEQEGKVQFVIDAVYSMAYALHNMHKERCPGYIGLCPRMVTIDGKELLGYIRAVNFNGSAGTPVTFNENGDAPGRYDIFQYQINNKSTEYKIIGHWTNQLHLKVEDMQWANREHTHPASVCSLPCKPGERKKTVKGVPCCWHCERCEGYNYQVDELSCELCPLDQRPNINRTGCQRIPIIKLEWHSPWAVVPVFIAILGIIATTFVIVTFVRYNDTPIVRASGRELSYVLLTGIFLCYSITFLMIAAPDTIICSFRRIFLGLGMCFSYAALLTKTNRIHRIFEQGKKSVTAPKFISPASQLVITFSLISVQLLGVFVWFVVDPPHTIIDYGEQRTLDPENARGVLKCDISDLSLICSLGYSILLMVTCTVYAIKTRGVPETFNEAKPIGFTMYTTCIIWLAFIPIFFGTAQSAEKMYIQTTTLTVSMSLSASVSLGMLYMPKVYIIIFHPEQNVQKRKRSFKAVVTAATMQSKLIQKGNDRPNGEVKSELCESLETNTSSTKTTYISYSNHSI

SMILES	z-score
O=C(NC1CCCC1)c1ncn[nH]1	-0.254
CC(C)COc1ccc(C(=O)Nc2ccc(NC(=O)c3ccco3)c(Cl)c2)cc1	-0.121
CCCCC(=O)Nc1ncc2c(n1)CC(C)(C)CC2=O	active: 6.64
Cc1nn(-c2ccccc2)c(N)c1Sc1cccc([N+](=O)[O-])c1	-0.774
COc1ccc(/C=C/c2nnc(NC(=O)CSc3ccc(Cl)cc3)s2)cc1	0.0185
CN1CCN(CCCn2cnc3c(=O)oc4ccccc4c32)CC1	1.1
CCN(CC)c1nc(N(CC)CC)[nH]c(=O)n1	1.39
O=C1CC(Sc2nnnn2-c2ccccc2)C(=O)N1c1cccc(Cl)c1 (configuration not stated)	0.0139
Cc1nnc(SCc2ccccc2)n1CC1CCCO1 (configuration not stated)	0.263
CCC(=O)Nc1ccc(C(=O)NNC(=O)COc2cccc(C)c2)cc1	-0.262
O=C1N=C(N2CCCCC2)SC1=C1CCCCC1	-0.28
O=C(NCCN1CCOCC1)C1CCN(c2nc3ccccc3o2)CC1	0.015
CCOC(=O)c1sc(Nc2cccc(C)c2C)nc1C	-0.0747
Cc1ccnc(NC(=O)CS(=O)(=O)Cc2ccccc2)c1	-0.174
Cc1ccc(NC(=O)c2cc(-c3ccco3)on2)cc1	0.297
COc1ccc(N/C(C)=C2/C(=O)C(=O)N(CCO)C2c2ccc(Br)cc2)cc1 (configuration not stated)	active: 5.05
Cc1ccc(C#N)c(SCc2ccccc2[N+](=O)[O-])n1	-0.24
C/C(=N/OC(=O)c1ccc(F)cc1)c1ccc(C)cc1	-0.0721
O=C(Nc1cccc2ccccc12)c1ccc(Br)o1	0.327
CCn1c(O)c(N=NC2=NC(=O)CS2)c2ccccc21	0.217
CCc1nc(SCC(=O)N2c3ccccc3Sc3ccccc32)c2ccccc2n1	-1.01
CCS(=O)(=O)N1Cc2ccccc2CC1C(=O)Nc1nnc(SCc2c(Cl)cccc2Cl)s1 (configuration not stated)	0.776
CCn1c2c(c(=N)c3c1CCC3)CCC2	0.0976

SMILES	z-score
CC(C)C(C)NC(=O)CSc1nc2scc(-c3ccco3)c2c(=O)n1-c1ccccc1 (configuration not stated)	-0.536
CC(=O)Nc1ccc(NC(=S)Nc2ccccc2)cc1	-0.0688
O=C(C1CCCO1)N1CCN(c2ccc(F)cc2)CC1 (configuration not stated)	0.282
CC(=O)OC1c2ccccc2C(=O)N1c1ccccc1C (configuration not stated)	-0.33
Cc1cc(C)nc(SCc2cc(=O)c(OC(=O)c3ccc(Cl)c([N+](=O)[O-])c3)co2)n1	-1.05
Cc1cccc(NC(=O)C(C)OC(=O)c2ccccc2NS(=O)(=O)c2cc(C)c(C)c([N+](=O)[O-])c2)c1 (configuration not stated)	0.656
Cc1cc(NC(=O)CSc2ccc3nnc(-c4cccnc4)n3n2)no1	-0.114
COC(=O)CSc1ncnc2c1sc1nc(-c3ccco3)c3c(c12)CC(C)(C)OC3	-1.09
O=C(Oc1cc2oc(=O)c3c(c2cc1Cl)CCCC3)c1ccco1	-0.428
COc1ccc(-c2nnc(SCc3cc(C)ccc3C)n2N)cc1	0.0225
O=C(CSc1ncnc2c1oc1ccccc12)Nc1nc2ccccc2s1	-0.00764
CCOc1ccc(NC(=O)CCN2CCN(S(=O)(=O)c3cc(Cl)ccc3OC)CC2)cc1	0.00548
Nc1nc(NCC2CCCO2)nc(NCC2CCCO2)c1[N+](=O)[O-] (configuration not stated)	0.00341
CCC(=O)N(Cc1ccc2c(c1)OCO2)Cc1cc2cc(OC)ccc2[nH]c1=O	-0.638
CCNC(=O)NC(=O)CSc1nc2ccccc2n1CCOC	0.0954
C=CCn1c(SCC(=O)Nc2ccc(-c3nc4ccc(C)cc4s3)cc2)nnc1-c1ccncc1	-0.459
COC(=O)c1cc(NC2c3ccccc3C(=O)N2CCN2CCOCC2)cc(C(=O)OC)c1 (configuration not stated)	-0.535
C=CCn1c(COc2cccc3ccc(C)nc23)nnc1SCC(=O)O	0.0574
CCC(Oc1ccccc1)C(=O)N1CCN(c2ccccn2)CC1 (configuration not stated)	0.0108
O=C(NCc1cccnc1)c1ccc(NC(=O)c2ccco2)cc1	0.0702
CC1Oc2ccccc2C=C1/C=N/NC(=O)c1ccccc1O (configuration not stated)	0.0521
CC(C)(C)c1ccc(/C=C/C(=O)Nc2ccncc2)cc1	0.0642
COc1cccc(CNC(=O)C2CCCN(S(=O)(=O)c3c(C)[nH]c(=O)[nH]c3=O)C2)c1 (configuration not stated)	0.119

SMILES	z-score
Cc1ccc(S(=O)(=O)/N=C2/NC(=O)/C(=C/c3ccc(Br)o3)S2)cc1	0.711
Cc1csc(NC(=O)Cc2nn(C)c(=O)c3ccccc23)n1	1.76
Cc1cc(C)c(C#N)c(N2CCCC2)n1	-0.89
Cc1ccn2cc(-c3cccc(NC(=O)c4ccccc4)c3)nc2c1	-0.542
O=C(c1ccccc1)N(C1=NCCCCS1)c1ccccc1	0.444
CC(=O)Nc1ccccc1C(=O)N1CCc2ccccc21	1.03
O=S(=O)(NCc1ccco1)c1cccc(S(=O)(=O)N2CCOCC2)c1	-0.532
Cc1ccccc1N(Cc1ccccc1F)S(C)(=O)=O	-0.198
C/C(=N\NC(=O)CC1(C)OCCO1)c1cccs1	-0.101
CC(C)C(=O)NCCc1c[nH]c2ccccc12	0.147
Fc1ccc(-n2c(Cc3ccccc3)nnc2SCc2nc(-c3cccs3)no2)cc1	-0.663
Cc1cc(C)nc(-n2c(Nc3ccccc3)cc(=O)c3c(C)n(-c4ccccc4)c(=O)nc32)n1	-0.0336
Cc1cc(C)cc(NC(=O)C2CCCN2/C=C/C(=O)C(F)(F)F)c1 (configuration not stated)	0.0572
COc1ccc(/C=N/NC(=O)c2ccc(O)cc2)cc1CN1CCCc2ccccc21	-0.0751
CSC(=O)NC12CC3CC(CC(C)(C3)C1)C2	active: 8.08
Cc1cc(Cl)cc(Br)c1OCCNCC(C)O (configuration not stated)	0.644
O=C(/C=C/c1cccc(Cl)c1)N1CCC(Cc2ccccc2)CC1	-0.321
CCOC(=O)c1ccc(N2C(=O)CC(N(Cc3ccc4c(c3)OCO4)C(=O)Nc3ccccc3)C2=O)cc1 (configuration not stated)	-0.102
COc1cccc(OC)c1C(=O)N1CCN(S(=O)(=O)c2ccc(C)cc2)CC1	-0.127
NCC12CC3CC(CC(O)(C3)C1)C2	0.878
O=C(Cc1ccc(-n2c(=O)c3ccccc3n(Cc3cccc([N+](=O)[O-])c3)c2=O)cc1)NCC1CCCO1 (configuration not stated)	-0.374
CCN(CC)CCNC(=O)CS(=O)Cc1nc(-c2ccc(Cl)cc2)oc1C (configuration not stated)	2.41
O=C(NC(=S)Nc1ccc(N2CCOCC2)cc1)c1cccc([N+](=O)[O-])c1	0.169

SMILES	z-score
CC(C)(C)C(=O)NC1(C(F)(F)F)N=C2SCCN2C1=O (configuration not stated)	-0.137
CCOC(=O)Cc1c(C)nc2c(-c3ccccc3OC)c(C)nn2c1C	-0.0115
Cc1ccc(NC(=O)c2cc(-c3ccc(C)o3)nc3ccccc23)nc1	-0.637
COc1c(F)c(F)c(-c2csc(N)n2)c(F)c1F	0.207
N#Cc1cc2c(=O)n3ccccc3nc2n(CCCn2ccnc2)c1=N	-0.881
CCCn1c(SCC(=O)Nc2nc(C)cs2)nnc1-c1cccnc1	0.337
CCCCc1c(C)c2ccc(OCC(C)=O)cc2oc1=O	0.489
O=C1CC(N2CCC(c3nc4ccccc4o3)CC2)C(=O)N1c1ccc(Cl)c(C(F)(F)F)c1 (configuration not stated)	-0.416
CC1(C)Cc2ccccc2C2CC(O)C(=O)N21 (configuration not stated)	-0.731
CCOC(=O)c1c(C)n(C)c2ccc(OC)c(NC(=O)CCN3CCSCC3)c12	-0.773
CCCC(=O)Nc1c(O)c2ccccc2[nH]c1=O	0.261
N#Cc1cccc(C(c2nnnn2C2CCCC2)N2CCCCCC2)c1 (configuration not stated)	-0.823
COc1cccc(NC(=S)NCc2ccco2)c1	0.531
c1ccc(N2CCN(c3ccc4nncn4n3)CC2)nc1	-0.348
CCOC(=O)CSC1=C(C#N)C(=O)NC(c2ccc(OC)c(OC)c2)S1 (configuration not stated)	active: 6.39
COc1cc(C2NC(=S)NC(c3ccccc3)=C2C(C)=O)cc(Cl)c1OCC(=O)O (configuration not stated)	-0.175
O=C(O)C1C2C=CC(O2)C1C(=O)NCCC1=CCCCC1 (configuration not stated)	0.536
COc1cccc(N(CC(=O)NCCSc2ccccn2)S(C)(=O)=O)c1	0.257
CCOC(=O)N1CCN(C(=O)c2ccc(CN(c3ccccc3)S(C)(=O)=O)cc2)CC1	0.0908
O=C(c1ccncc1)c1nccn1-c1ccccn1	0.347
COC(CCN(C)C)(c1ccccc1)c1ccccc1	-1.21
CCc1ccc(/C=N/NC(=O)C(=O)NCCCN2CCOCC2)cc1	-0.174
O=C(COC(=O)CNS(=O)(=O)c1ccccc1)Nc1ccc(Cl)cn1	-0.294

SMILES	z-score
OC(CN1c2ccccc2Sc2ccccc21)Cn1nnc2ccccc21 (configuration not stated)	-1.19
COc1cc(S(=O)(=O)NC2CCCCC2)ccc1F	-0.383
COc1cc(S(=O)(=O)Nc2c(C)cc(C)cc2C)ccc1Cl	0.0266
CC(C)(C)NC(=O)C(=O)NNC(=O)c1ccc(C(C)(C)C)cc1	active: 5.3
CCc1nnc(NC(=O)CN2C(=O)c3ccccc3S2(=O)=O)s1	-0.0336
CCOC(=O)C1=C(CNCc2ccccc2Cl)NC(=O)NC1c1ccc2c(c1)OCO2 (configuration not stated)	0.278
N#Cc1c(-c2ccccc2)nc(N2CCOCC2)[nH]c1=O	-1.42
CC(C)N(Cc1nc(-c2ccc(Cl)cc2)no1)C(=O)C(c1ccccc1)c1ccccc1	-0.258
CC(=O)c1cc2c(cc1NC(=O)c1ccc(C)cc1)OCO2	0.935
CCOC(=O)/C(C#N)=N/Nc1ccc(S(=O)(=O)N2CCc3ccccc32)cc1	-0.374
CC(Sc1nnc(-c2cccnc2)n1-c1ccccc1)C(=O)NCc1ccc2c(c1)OCO2 (configuration not stated)	-0.153
COC(=O)c1cccc(NC(=O)/C(=C\c2ccccc2)NC(=O)c2ccccc2Cl)c1	-0.15
Nc1c(C(=O)c2ccc(F)cc2)oc2ccccc12	-0.245
Cc1nc2ccccc2c(=O)n1NS(C)(=O)=O	-0.245
CC(=O)Nc1ccc(NC(=O)c2ccccc2N(C)S(C)(=O)=O)cc1	0.366
COCc1cc(C)nc(Nc2cc(C)ccc2C)c1C#N	-0.116
c1csc(CNc2ncnc3sccc23)c1	-0.257
c1ccc(Nc2nc3ccccc3[nH]2)nc1	-0.125
CCNC(=S)N1CCN(c2ccc([N+](=O)[O-])cc2)CC1	0.99
COc1ccc(C)cc1NC(=O)C(C)N(c1ccc(C)cc1)S(C)(=O)=O (configuration not stated)	-0.357
